“And” between values parts separate entries of the source, which are not always exact repeats. Identical values can stand only once. The shares of active, inactive and inconclusive entries below differ from those in the screen. Potencies of inconclusive entries are doubtful fits and often do not repeat. The source made the active and inactive calls. Calls come from the whole dose curve; as a rule, active = well fitted curve in the direction sought with a large enough effect; inconclusive = small, poorly fitted or top-dose-only effect, or another doubt; inactive = no such curve, though single readings can be large; an effect the other way counts as inactive or inconclusive.
Experiments:
[1] = Viability qHTS for spleen associated tyrosine kinase inhibitor (SYKi) naive MV4-11 cells (AID 1963823); conditions: MV4-11 AML viability, CellTiter-Glo luminescence, 72 h; series mostly up to 45 µM; note: nearly all actives have a fitted effect of over 40% in size
Method in brief: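 Luminescence from CellTiter-Glo, developed 10 min at room temperature, gave viability of MV4-11 cells never exposed to SYK inhibitor. Cells (500/well) had been incubated with compounds for 72 hr under standard culture conditions.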

[2] = Viability qHTS for spleen associated tyrosine kinase inhibitor (SYKi) drug resistant MV4-11 cells (AID 1963824); note: nearly all actives have a fitted effect of over 35% in size
Method in brief: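 SYK-inhibitor-resistant MV4-11 AML cells were seeded at 500 per well onto compound and cultured 72 hours (37 °C, 5% CO2). CellTiter-Glo was then added, and after 10 min at room temperature, luminescence gave viability.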

[3] = Quantitative highthroughput screen to assess conditional lethalithy of NOMO1 cells grown in RPMI1640 with untreated serum (RPMI+s) (AID 1963876); conditions: NOMO1 AML cells in RPMI+serum, CellTiter-Glo viability, 48 h; viability: at 45.8 µM (top of the series); note: nearly all actives have a fitted effect of over 35% in size
Method in brief: (§1)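 Each medium arm—HPLM with 10% dialyzed FBS, or RPMI1640 with 5 mM glucose and 10% untreated or dialyzed FBS—was screened against an 11-point, 3-fold compound titration for 48 h at 37 °C, with CellTiter-Glo luminescence as endpoint.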

[4] = Quantitative highthroughput screen to assess conditional lethalithy of NOMO1 cells grown in RPMI1640 with dialyzed fetal bovine serum (RPMI+ds) (AID 1963877); note: nearly all actives have a fitted effect of over 30% in size
Method in brief: as §1

[5] = Quantitative highthroughput screen to assess conditional lethalithy of NOMO1 cells grown in Human Plasma-Like Medium with dialyzed fetal bovine serum (HPLM+ds) (AID 1963878); conditions: NOMO1 AML cells in HPLM+ds, CellTiter-Glo viability, 48 h; viability: at 45.8 µM (top of the series); note: nearly all actives have a fitted effect of over 35% in size
Method in brief: as §1

[6] = Quantitative highthroughput screen to assess conditional lethalithy of P12 Ichikawa cells grown in Human Plasma-Like Medium with dialyzed fetal bovine serum (HPLM+ds) (AID 1963879); conditions: Potency: viability; note: nearly all actives have a fitted effect of over 35% in size
Method in brief: as §1

[7] = Quantitative highthroughput screen to assess conditional lethalithy of P12 Ichikawa cells grown in RPMI1640 with dialyzed fetal bovine serum (RPMI+ds) (AID 1963880); conditions: Potency: P12-Ichikawa viability; note: nearly all actives have a fitted effect of over 35% in size
Method in brief: as §1

[8] = Quantitative highthroughput screen to assess conditional lethalithy of P12 Ichikawa cells grown in RPMI1640 with untreated serum (RPMI+s) (AID 1963881); conditions: Potency: viability; note: nearly all actives have a fitted effect of over 35% in size
Method in brief: as §1

[9] = Quantitative highthroughput screen to assess conditional lethalithy of SEM cells grown in Human Plasma-Like Medium with dialyzed fetal bovine serum (HPLM+ds) (AID 1963882); note: nearly all actives have a fitted effect of over 35% in size
Method in brief: as §1

[10] = Cellular viability qHTS for adrenocortical cancer (ACC) cell line SW-13 (AID 1963989); conditions: SW-13 ACC cells viability, CellTiter-Glo, 48 h; activity (max response): stronger effect = lower value; note: nearly all actives have a fitted effect of over 65% in size
Method in brief: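 Here, serum-free SW-13 cultures were dosed up to 46 uM. Following 48 h, ATP-dependent luminescence (CellTiter-Glo) reported viable cells, and logistic modeling produced IC50 values.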

[11] = Quantitative highthroughput screen to assess conditional lethalithy of SEM cells grown in RPMI1640 with unreated serum (RPMI+s) (AID 1963883); conditions: SEM B-ALL cells, CellTiter-Glo viability, 48 h; viability: at 45.8 µM (top of the series); note: nearly all actives have a fitted effect of over 35% in size
Method in brief: as §1

[12] = Quantitative highthroughput screen to assess conditional lethalithy of SEM cells grown in RPMI1640 with dialyzed fetal bovine serum (RPMI+ds) (AID 1963884); conditions: SEM B-ALL cells, RPMI+dialyzed FBS, CellTiter-Glo viability, 48 h; viability: at 45.8 µM (top of the series); note: nearly all actives have a fitted effect of over 35% in size
Method in brief: as §1

[13] = Cellular viability qHTS for adrenocortical cancer (ACC) cell line NCI-H295R (AID 1963990); conditions: CellTiter-Glo ATP luminescence, 48 h; series mostly up to 46.1 µM; note: nearly all actives have a fitted effect of over 60% in size
Method in brief: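 Viability of NCI-H295R after 48 h of treatment (final up to 46 uM) measured through cellular ATP luminescence.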
Potency is the fitted concentration of half-maximal effect; tags give direction and shape of the fitted curve.

C[N+](C)([O-])CCNc1ccc(NCC[N+](C)(C)[O-])c2c1C(=O)c1c(O)ccc(O)c1C2=O
Potency [1]: inconclusive: 0.934 µM [cytotoxic, full curve] | Potency [2]: active: 0.934 µM | Potency [3]: inconclusive: 2.96 µM [cytotoxic, full curve] | Potency [4]: inconclusive: 3.32 µM [cytotoxic, full curve] | Potency [5]: inconclusive: 2.35 µM [cytotoxic, full curve] | Potency [6]: active: 1.66 µM | Potency [7]: inconclusive: 1.32 µM [cytotoxic, full curve] | Potency [8]: active: 0.743 µM | Potency [9]: active: 1.18 µM | Potency [10]: inconclusive: 17.8 µM [cytotoxic, partial curve]

CN1CCN(c2ccc3nc(-c4c(N)c5c(F)cccc5[nH]c4=O)[nH]c3c2)CC1
Potency [1]: active: 11.6 nM and inconclusive: 11.8 nM [cytotoxic, full curve] | Potency [2]: active: 16.4 nM and active: 18.6 nM | Potency [3]: inconclusive: 8.33 µM [cytotoxic, partial curve] | Potency [4]: inconclusive: 8.33 µM [cytotoxic, partial curve] | Potency [5]: inconclusive: 3.72 µM [cytotoxic, full curve] | Potency [6]: inconclusive: 18.7 µM [cytotoxic, partial curve] | Potency [7]: inconclusive: 7.43 µM [cytotoxic, partial curve] | Potency [8]: inconclusive: 7.43 µM [cytotoxic, partial curve] | Potency [9]: inconclusive: 5.26 µM [cytotoxic, partial curve] | Potency [11]: inconclusive: 1.48 µM [cytotoxic, full curve] | Potency [12]: inconclusive: 1.48 µM [cytotoxic, partial curve]

Clc1ccc2ncc(-c3cccc(NC4CNC4)n3)n2c1
Potency [1]: inconclusive: 26.3 µM [cytotoxic, single point] | Potency [2]: inconclusive: 11.8 µM [rising, single point] | Potency [3]: inconclusive: 37.2 µM [cytotoxic, single point] | Potency [4]: inconclusive: 29.6 µM [cytotoxic, single point] | Potency [5]: active: 20.9 µM | Potency [6]: inconclusive: 23.5 µM [cytotoxic, partial curve] | Potency [7]: inconclusive: 23.5 µM [cytotoxic, partial curve] | Potency [8]: active: 23.5 µM | Potency [9]: inconclusive: 7.43 µM [cytotoxic, partial curve] | Potency [11]: inconclusive: 14.8 µM [cytotoxic, partial curve] | Potency [12]: inconclusive: 7.43 µM [cytotoxic, partial curve]

CCOC(=O)C1=C[C@]2(CC)CCCN3CCc4c(n1c1ccccc41)[C@@H]32
Potency [1]: active: 13.3 µM | Potency [2]: inconclusive: 33.5 µM [cytotoxic, single point] | Potency [3]: inconclusive: 33.2 µM [cytotoxic, single point] | Potency [4]: inconclusive: 23.5 µM [cytotoxic, single point] | Potency [5]: inconclusive: 33.2 µM [cytotoxic, single point] | Potency [6]: inactive | Potency [7]: inconclusive: 33.2 µM [cytotoxic, single point] | Potency [8]: inconclusive: 33.2 µM [cytotoxic, single point] | Potency [11]: inconclusive: 26.4 µM [cytotoxic, single point] | Potency [10]: inconclusive: 25.9 µM [cytotoxic, single point] | Potency [13]: inconclusive: 23.1 µM [cytotoxic, partial curve]

N#Cc1ccc(Oc2ccc3c(c2)COB3O)cc1
Potency [1]: inconclusive: 5.8 µM [cytotoxic, partial curve] | Potency [2]: inconclusive: 10.3 µM [cytotoxic, partial curve] | Potency [3]: inconclusive: 29.6 µM [cytotoxic, single point] | Potency [4]: inconclusive: 37.2 µM [cytotoxic, single point] | Potency [5]: inconclusive: 3.72 µM [cytotoxic, full curve] | Potency [6]: inconclusive: 14.8 µM [cytotoxic, partial curve] | Potency [7]: inconclusive: 37.2 µM [cytotoxic, single point] | Potency [8]: inconclusive: 33.2 µM [cytotoxic, single point] | Potency [9]: inconclusive: 23.5 µM [cytotoxic, partial curve] | Potency [11]: inconclusive: 37.2 µM [cytotoxic, single point] | Potency [12]: inconclusive: 37.2 µM [cytotoxic, single point] | Potency [10]: inconclusive: 25.1 µM [cytotoxic, single point]

O=c1c(-n2ccnn2)c[nH]n1-c1cc(N2CCOCC2)ncn1
Potency [1]: inconclusive: 20.9 µM [cytotoxic, partial curve] | Potency [2]: inconclusive: 33.2 µM [cytotoxic, single point] | Potency [3]: inconclusive: 0.0831 µM [cytotoxic, full curve] | Potency [4]: inconclusive: 0.117 µM [cytotoxic, full curve] | Potency [5]: inconclusive: 0.0331 µM [cytotoxic, full curve] | Potency [6]: inconclusive: 0.0831 µM [cytotoxic, full curve] | Potency [7]: inconclusive: 0.166 µM [cytotoxic, full curve] | Potency [8]: inconclusive: 0.166 µM [cytotoxic, full curve] | Potency [9]: inconclusive: 0.186 µM [cytotoxic, full curve] | Potency [11]: inconclusive: 0.0467 µM [cytotoxic, full curve] | Potency [12]: inconclusive: 0.166 µM [cytotoxic, full curve] | Potency [13]: inconclusive: 31.6 µM [cytotoxic, single point]

CCCCC(C)(C)[C@H](O)C=C[C@H]1[C@H](O)CC(=O)[C@H]1CC=CCCCC(=O)O
Potency [1]: inconclusive: 0.417 µM [cytotoxic, full curve, poor fit] | Potency [2]: active: 0.148 µM | Potency [3]: inconclusive: 37.2 µM [cytotoxic, single point] | Potency [4]: inconclusive: 23.5 µM [cytotoxic, partial curve] | Potency [5]: active: 20.9 µM | Potency [6]: inconclusive: 26.4 µM [cytotoxic, single point] | Potency [8]: active: 26.4 µM | Potency [11]: inconclusive: 3.32 µM [cytotoxic, full curve] | Potency [12]: inconclusive: 16.6 µM [cytotoxic, partial curve, poor fit] | Potency [10]: inconclusive: 35.5 µM [cytotoxic, single point]

CCc1cc(Nc2nccc(-c3c(-c4ccc(OC)c(C(=O)Nc5c(F)cccc5F)c4)nc4ccccn34)n2)c(OC)cc1N1CCC(N2CCN(S(C)(=O)=O)CC2)CC1
Potency [1]: inconclusive: 3.66 µM [cytotoxic, full curve, poor fit] and inconclusive: 4.17 µM [cytotoxic, full curve] | Potency [2]: inconclusive: 9.2 µM [cytotoxic, partial curve, poor fit] and inconclusive: 4.17 µM [cytotoxic, full curve] | Potency [3]: inconclusive: 37.2 µM [cytotoxic, single point] | Potency [4]: inconclusive: 33.2 µM [cytotoxic, single point] | Potency [5]: inconclusive: 23.5 µM [cytotoxic, partial curve] | Potency [7]: inconclusive: 23.5 µM [cytotoxic, partial curve] | Potency [8]: inconclusive: 20.9 µM [cytotoxic, partial curve] | Potency [9]: inconclusive: 23.5 µM [cytotoxic, single point] | Potency [11]: inconclusive: 16.6 µM [cytotoxic, partial curve]

COc1cc2c(cc1Cc1cccc(Cl)c1F)c(=O)c(C(=O)O)cn2[C@H](CO)C(C)C
Potency [1]: active: 5.9 µM | Potency [2]: active: 7.42 µM | Potency [3]: inconclusive: 33.2 µM [cytotoxic, single point] | Potency [4]: inconclusive: 33.2 µM [cytotoxic, single point] | Potency [5]: inconclusive: 18.7 µM [cytotoxic, partial curve] | Potency [6]: active: 26.4 µM | Potency [7]: active: 16.6 µM | Potency [9]: inconclusive: 20.9 µM [cytotoxic, partial curve, poor fit] | Potency [11]: inconclusive: 13.2 µM [cytotoxic, partial curve, poor fit] | Potency [12]: inconclusive: 13.2 µM [cytotoxic, partial curve, poor fit] | Potency [10]: inconclusive: 31.6 µM [cytotoxic, single point]

O=C(Nc1cccc2c(=O)cc(-c3nn[nH]n3)oc12)c1ccc(OCCCCc2ccccc2)cc1
Potency [1]: inconclusive: 0.0266 µM [rising, full curve, poor fit] | Potency [2]: inactive | Potency [3]: inconclusive: 29.6 µM [cytotoxic, single point] | Potency [4]: inconclusive: 20.9 µM [cytotoxic, partial curve] | Potency [5]: active: 23.5 µM | Potency [6]: inconclusive: 37.2 µM [cytotoxic, single point] | Potency [7]: inconclusive: 33.2 µM [cytotoxic, single point] | Potency [9]: inconclusive: 8.33 µM [cytotoxic, full curve] | Potency [12]: inconclusive: 8.33 µM [cytotoxic, full curve] | Potency [13]: inconclusive: 6.51 µM [cytotoxic, single point]

CCOC(=O)[C@@H](N)CCC(=O)N[C@@H](CSCc1ccccc1)C(=O)N[C@@H](C(=O)OCC)c1ccccc1
Potency [1]: active: 5.9 µM | Potency [2]: active: 5.9 µM | Potency [3]: inconclusive: 23.5 µM [cytotoxic, single point] | Potency [4]: inactive | Potency [5]: inconclusive: 33.2 µM [cytotoxic, single point] | Potency [6]: inactive | Potency [8]: inactive | Potency [11]: inactive | Potency [12]: inactive | Potency [13]: inconclusive: 31.6 µM [cytotoxic, single point]

From PubChem BioAssay (NCATS)
